According to ChEMBL document CHEMBL4376894 (J Med Chem, 2020):

How the values were obtained:
Mu-type opioid receptor = Mu-type opioid receptor (Homo sapiens, UniProt P35372); test: biochemical; type: cell-based, CHO
[1] = biological target: Kappa-type opioid receptor (Homo sapiens, UniProt P41145); test: biochemical; type: cell-based, CHO
[2] = Toxicity in C57BL/6 mouse assessed as effect on locomotion tail at 10 mg/kg, sc; type: organism-based; conditions: in vivo
[3] = Ratio of half life of compound to verapamil in mouse liver microsomes at 1 uM in presence of NADPH by LC-MS/MS analysis; type: ADME, Microsome
[4] = biological target: Delta-type opioid receptor (Homo sapiens, UniProt P41143); test: biochemical
UniProt P41143, sequence (P41143 whole entry): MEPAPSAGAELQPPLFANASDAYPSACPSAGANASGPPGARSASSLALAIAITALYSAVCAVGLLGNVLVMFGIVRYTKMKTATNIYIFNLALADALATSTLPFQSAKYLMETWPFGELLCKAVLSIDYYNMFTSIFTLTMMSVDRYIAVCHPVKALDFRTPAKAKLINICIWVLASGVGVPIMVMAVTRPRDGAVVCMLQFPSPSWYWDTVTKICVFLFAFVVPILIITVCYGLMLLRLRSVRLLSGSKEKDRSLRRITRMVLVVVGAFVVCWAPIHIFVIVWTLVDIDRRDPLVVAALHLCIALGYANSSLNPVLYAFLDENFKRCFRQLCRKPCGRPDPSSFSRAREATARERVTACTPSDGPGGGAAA

[5] = Toxicity in C57BL/6 mouse assessed as induction of sedation at 10 mg/kg, sc; type: organism-based; conditions: in vivo
[6] = Toxicity in C57BL/6 mouse assessed as induction of convulsions at 10 mg/kg, sc; type: organism-based; conditions: in vivo
[7] = Toxicity in C57BL/6 mouse assessed as induction of behavioral changes at 10 mg/kg, sc; type: organism-based; conditions: in vivo
[8] = Toxicity in C57BL/6 mouse assessed as induction of Straub tail at 10 mg/kg, sc; type: organism-based; conditions: in vivo
Mus musculus [9] = test: Antinociceptive activity in C57BL/6 mouse assessed as reduction in writhing at 10 mg/kg, sc dosed 30 mins before acetic acid injection and measured after 20 mins by acetic acid stretch assay; type: functional, organism-based
Mus musculus [10] = test: Antinociceptive activity in C57BL/6 mouse assessed as reduction in writhing at 1 mg/kg, sc dosed 30 mins before acetic acid injection and measured after 20 mins by acetic acid stretch assay; type: functional, organism-based

UniProt P41145, sequence (P41145 whole entry): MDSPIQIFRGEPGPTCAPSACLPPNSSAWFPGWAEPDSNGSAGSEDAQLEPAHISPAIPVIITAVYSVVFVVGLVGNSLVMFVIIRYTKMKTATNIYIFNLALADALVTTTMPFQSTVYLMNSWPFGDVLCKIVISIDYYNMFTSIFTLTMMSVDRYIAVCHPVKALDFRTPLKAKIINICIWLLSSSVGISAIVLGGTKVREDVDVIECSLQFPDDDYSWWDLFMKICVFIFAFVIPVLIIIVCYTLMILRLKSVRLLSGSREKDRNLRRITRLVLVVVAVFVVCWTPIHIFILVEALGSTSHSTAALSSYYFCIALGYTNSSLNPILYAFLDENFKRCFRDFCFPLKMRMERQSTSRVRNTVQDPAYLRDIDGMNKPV
UniProt P35372, sequence (P35372 whole entry): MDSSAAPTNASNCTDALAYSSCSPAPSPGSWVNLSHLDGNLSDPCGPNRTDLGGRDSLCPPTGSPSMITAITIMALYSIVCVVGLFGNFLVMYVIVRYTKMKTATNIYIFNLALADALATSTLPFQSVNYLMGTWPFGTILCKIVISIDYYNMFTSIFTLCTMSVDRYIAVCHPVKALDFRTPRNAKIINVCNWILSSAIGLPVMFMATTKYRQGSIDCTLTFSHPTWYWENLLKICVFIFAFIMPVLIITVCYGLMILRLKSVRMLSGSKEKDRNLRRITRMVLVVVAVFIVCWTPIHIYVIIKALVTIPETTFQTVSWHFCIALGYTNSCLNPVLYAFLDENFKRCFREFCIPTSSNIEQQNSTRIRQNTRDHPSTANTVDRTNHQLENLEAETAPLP

With CCOc1ccc(CN2CCCC2)cc1CNC(=O)[C@@H](N)Cc1c(C)cc(O)cc1C.O=C(O)C(F)(F)F the Ki (Mu-type opioid receptor) was 15 nM, the Ki [1] was 430 nM and the Activity [2] was “Non-Toxic”. The Ratio [3] was 6.6, the Ki [4] was 44.4 nM and the Activity [5] was “Non-Toxic”. For the same compound, the Activity [6] was “Non-Toxic”, the Activity [7] was “Non-Toxic” and the Activity [8] was “Non-Toxic”.
For CCOc1ccc(CN2CC3CC3C2)cc1CNC(=O)[C@@H](N)Cc1c(C)cc(O)cc1C (stereo partly specified), the Ki (Mu-type opioid receptor) was 19.6 nM, the Ki [1] was 247 nM and the Ki [4] was 50 nM.
With CCOc1ccc(CN(C)Cc2ccccc2)cc1CNC(=O)[C@@H](N)Cc1c(C)cc(O)cc1C.O=C(O)C(F)(F)F the Ki (Mu-type opioid receptor) was 0.48 nM, the Ki [1] was 12.4 nM and the Activity [2] was “Non-Toxic”. The Ki [4] was 1.93 nM, the Activity [5] was “Non-Toxic” and the Activity [6] was “Non-Toxic”. For the same compound, the Activity [7] was “Non-Toxic” and the Activity [8] was “Non-Toxic”.
With CCOc1ccc(CNCc2ccccc2)cc1CNC(=O)[C@@H](N)Cc1c(C)cc(O)cc1C.O=C(O)C(F)(F)F the Activity (Mus musculus [9]) was “Active”, the Ki [1] was 23.2 nM and the Activity [2] was “Non-Toxic”. The Activity [5] was “Non-Toxic”, the Activity [6] was “Non-Toxic” and the Activity [7] was “Non-Toxic”. The Activity [8] was “Non-Toxic”.
For CCOc1ccc(CN2CCOCC2)cc1CNC(=O)[C@@H](N)Cc1c(C)cc(O)cc1C.O=C(O)C(F)(F)F, the Ki (Mu-type opioid receptor) was 38 nM, the Ki [1] was greater than 1870 nM and the Ki [4] was 76 nM.
For CCOc1ccc(CN2CCCCC2)cc1CNC(=O)[C@@H](N)Cc1c(C)cc(O)cc1C.O=C(O)C(F)(F)F, the Ki (Mu-type opioid receptor) was 5 nM, the Ki [1] was 101 nM and the Activity [2] was “Non-Toxic”. The Ratio [3] was 3.3, the Ki [4] was 15.7 nM and the Activity [5] was “Non-Toxic”. For the same compound, the Activity [6] was “Non-Toxic”, the Activity [7] was “Non-Toxic” and the Activity [8] was “Non-Toxic”.
With CCOc1ccc(CN2CCc3ccccc3C2)cc1CNC(=O)[C@@H](N)Cc1c(C)cc(O)cc1C.O=C(O)C(F)(F)F the Ki (Mu-type opioid receptor) was 0.23 nM, the Ki [1] was 44.2 nM and the Activity [2] was “Non-Toxic”. For the same compound, the Ki [4] was 2.4 nM, the Activity [5] was “Non-Toxic” and the Activity [6] was “Non-Toxic”. The Activity [7] was “Non-Toxic” and the Activity [8] was “Non-Toxic”.
With CCOc1ccc(CN2Cc3ccccc3C2)cc1CNC(=O)[C@@H](N)Cc1c(C)cc(O)cc1C.O=C(O)C(F)(F)F the Ki (Mu-type opioid receptor) was 0.8 nM, the Activity (Mus musculus [10]) was “Active” and the Ki [1] was 243 nM. For the same compound, the Activity [2] was “Non-Toxic”, the Activity [5] was “Non-Toxic” and the Activity [6] was “Non-Toxic”. The Activity [7] was “Non-Toxic” and the Activity [8] was “Non-Toxic”.
Compound CCOc1ccc(C(=O)N2CCCC2)cc1CNC(=O)[C@@H](N)Cc1c(C)cc(O)cc1C.O=C(O)C(F)(F)F has a Ki (Mu-type opioid receptor) of 33 nM, a Ki [1] greater than 716 nM and a Ki [4] of 74 nM.
With CCOc1ccc(C(=O)N2Cc3ccccc3C2)cc1CNC(=O)[C@@H](N)Cc1c(C)cc(O)cc1C.O=C(O)C(F)(F)F the Ki (Mu-type opioid receptor) was 0.29 nM, the Ki [1] was 261 nM and the Ki [4] was 5.9 nM.

The source made the active and inactive calls. The calls are words filed in the database; no cut-off is given here.
